Source: article PMC4336329 (PLoS ONE, 2015)
The campaign covered roughly 310,000 compounds. About 14,000 (4.5%) showed an effect of 50% or more. Effects have a minus sign here. The list shows a part of the results.

These molecules were tested against human ether-à-go-go-related gene (hERG) potassium channel (human, UniProt Q12809) (assay: primary screen, population patch clamp on CHO cells stably expressing hERG).
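Also: peak tail current of the secondary pulse compared with the same well before compound.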

human ether-à-go-go-related gene (hERG) potassium channel, sequence (Q12809 whole entry, looked up): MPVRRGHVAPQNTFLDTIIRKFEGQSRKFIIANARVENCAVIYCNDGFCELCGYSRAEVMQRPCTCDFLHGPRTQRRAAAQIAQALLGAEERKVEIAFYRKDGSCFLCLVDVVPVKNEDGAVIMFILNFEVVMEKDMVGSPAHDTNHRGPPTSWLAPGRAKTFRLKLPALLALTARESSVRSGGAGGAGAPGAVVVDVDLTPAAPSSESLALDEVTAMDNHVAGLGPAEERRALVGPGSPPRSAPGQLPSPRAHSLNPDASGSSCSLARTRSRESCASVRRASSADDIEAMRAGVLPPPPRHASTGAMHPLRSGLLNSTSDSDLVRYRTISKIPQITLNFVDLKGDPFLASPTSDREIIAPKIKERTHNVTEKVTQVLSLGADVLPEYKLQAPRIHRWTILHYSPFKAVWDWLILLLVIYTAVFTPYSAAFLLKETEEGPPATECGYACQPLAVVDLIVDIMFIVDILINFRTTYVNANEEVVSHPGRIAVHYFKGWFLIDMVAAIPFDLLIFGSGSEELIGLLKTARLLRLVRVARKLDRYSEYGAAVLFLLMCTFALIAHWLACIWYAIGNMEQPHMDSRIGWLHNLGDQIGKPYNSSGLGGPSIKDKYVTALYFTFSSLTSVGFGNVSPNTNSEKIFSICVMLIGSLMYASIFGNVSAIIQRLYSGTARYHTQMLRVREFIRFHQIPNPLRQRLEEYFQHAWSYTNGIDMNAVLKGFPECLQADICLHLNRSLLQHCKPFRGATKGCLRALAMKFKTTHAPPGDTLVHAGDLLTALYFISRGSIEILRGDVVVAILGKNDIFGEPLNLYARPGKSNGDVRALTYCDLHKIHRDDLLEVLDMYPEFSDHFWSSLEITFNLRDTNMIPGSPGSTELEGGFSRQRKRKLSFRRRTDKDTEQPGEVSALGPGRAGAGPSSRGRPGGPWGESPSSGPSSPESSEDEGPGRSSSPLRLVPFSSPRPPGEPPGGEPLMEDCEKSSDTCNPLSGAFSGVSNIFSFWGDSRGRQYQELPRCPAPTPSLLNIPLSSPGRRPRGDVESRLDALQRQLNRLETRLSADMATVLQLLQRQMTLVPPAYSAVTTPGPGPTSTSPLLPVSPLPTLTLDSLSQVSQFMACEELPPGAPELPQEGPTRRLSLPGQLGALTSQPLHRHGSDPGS

Compound	hERG current change (%, negative = inhibition) at 10uM [%]
O=C(CSc1nnc(SCc2ccccc2)s1)N/N=C/C=C/c1ccccc1[N+](=O)[O-]	-3.87
Clc1ccc(-c2nnc3n2CCCCS3)cc1	-4.8
Cc1cc(NC(=O)CCC(=O)N(Cc2cccnc2)C(C(=O)NC(C)(C)C)c2ccccc2Cl)no1 (centres unmarked)	8.8
COc1ccc(C(=O)Oc2c(CN3CCOCC3)cc(Cl)c3cccnc23)cc1	-23.9
COc1cccc(/C=c2\sc3nc(-c4cccs4)nn3c2=O)c1OC	6.41
CCCC(=O)Nc1ccc(C(=O)NNC(=O)c2cccs2)cc1	12.2
O=C(Nc1nc(-c2cc(Cl)sc2Cl)cs1)c1cccs1	22
O=C1N(Cc2ccccc2)c2ccccc2C12OCCO2	18.9
O=C1[C@@H]2[C@H](C(=O)N1n1cnnc1)[C@H]1C=C[C@@H]2C1	11.5
O=C1CCCc2nc(N3CCN(C(=O)c4ccco4)CC3)ncc21	3.75
CC(C)(C)NC(=O)N1CCN(c2nc(-c3ccccc3)ns2)CC1	0.919
COC(=O)CCCCCCCCC(O)CN1CCCCC1.Cl (centres unmarked)	8.53
Cc1cc(C)c(S(=O)(=O)N2CCOC2CNC(=O)C(=O)NCc2ccco2)c(C)c1 (centres unmarked)	-8.68
Cc1ccc(-c2csc3nc(C)n(N)c(=O)c23)o1	12.1
O=C(COC(=O)CCc1ccc(S(=O)(=O)N2CCOCC2)cc1)NCc1ccccc1Cl	-38.5
Cc1cc(C)c(C#N)c(SCCS(=O)(=O)Cc2ccc(Cl)cc2)n1	8.08
CCn1cc(/C=C(\NC(=O)c2ccccc2OC)C(=O)NCCCn2ccnc2)c2ccccc21	-19.2
Cc1nonc1NC(=O)CSc1ccc(-c2ccccc2)nn1	-30.3
NNC(=O)CSc1c(-c2cccs2)[nH]c2ccccc12	7.58
CCOc1ccc2[nH]c(=O)c(CN(CC3COCCO3)C(=O)c3ccco3)cc2c1 (centres unmarked)	-9.52
CC(=O)N1c2ccc(S(=O)(=O)NCC3CCC(C(=O)N4CC(C)CC(C)C4)CC3)cc2CC1C (centres unmarked)	-14.8
Cc1nn(C)cc1[C@@H]1C[C@H]2CN(Cc3cccc(Cl)c3)C(=O)[C@]23CCCN13	-36.8
COCC1CCN(Cc2c(C(=O)N3CCN(C4CCCCC4)CC3)nc3ccccn23)C1 (centres unmarked)	3.86

Compound	hERG current change (%, negative = inhibition) at 10uM [%]
Cc1nc(NC(=O)CN(C)S(=O)(=O)c2ccc(Cl)cc2)sc1C	-4.08
CSc1ccccc1NC(=O)c1noc(C)c1[N+](=O)[O-]	-3.27
COc1ccccc1CCn1c(N)c(C#N)c2nc3ccccc3nc21	-6.3
CCOc1ccc(NC(=O)CN(C)C(=O)c2ccccc2OCCOc2ccccc2)cc1OCC	-26.9
Cn1cc(C(=O)NC2C3CC4CC(C3)CC2C4)cn1 (centres unmarked)	15.7
Cc1cc(NC(=O)CSc2nc3ccccc3c(=O)n2Cc2ccccc2)no1	6.67
CCOC(=O)c1c(NC(=O)CCN2CCOCC2)sc2c1CC(C)(C)OC2	-34.4
COc1ccc(C2CC(C(F)(F)F)n3ncc(C(=O)NCC4CCCO4)c3N2)cc1OC (centres unmarked)	3.34
CC(=O)N1CCc2c(sc3c2c(=O)n(-c2ccccc2)c(=O)n3CC(=O)NCC2CCCO2)C1 (centres unmarked)	-3.4
Cc1ccc(-c2cc(C(=O)N3CCc4ccccc4C3)[nH]n2)cc1C	9.83
COc1cc(C(=O)Oc2cccc(/C=N/NC(=O)c3cc(C)[nH]n3)c2)cc(OC)c1OC	16.5
COc1ccc(CC(=O)OCC(=O)NC2CCCCC2)cc1	-18.1
CCOc1ccc(NC(=O)NNC(=O)COc2ccc3ccccc3c2)cc1	24.2
COC(=O)Cn1c(O)c(N=NC(=O)OC)c2ccccc21	8.62
COc1ccc(NC(=O)CCn2nc(C)cc2C)cc1	7.72
Cn1c(=O)c(C(=O)NC2CCCCCCC2)c(O)c2ccccc21	1.85
Cc1csc(NC(=O)CSc2nnc(-c3ccoc3C)n2C(C)c2ccccc2)n1 (centres unmarked)	-74.1
Cc1ccc(NC(=O)c2c(Cl)nc3ccccn23)cc1	7
O=C(CC1CCCC1)NNC(=O)c1ccc(F)cc1	6.27
CCCOc1ccc(C(=O)CCC(=O)OCC(=O)Nc2ccc(Oc3ccccc3)cc2)cc1	-13.3
Cc1cnc(C(=O)Nc2nnc(C3CC3)s2)cn1	1.12
c1cc(-c2cn(C[C@H]3CC[C@@H]([C@@H]4CC[C@H](Cn5cc(-c6ccsc6)nn5)O4)O3)nn2)cs1	-75.5
CC(C)(C)C(=O)Nc1ccc(N2CCN(c3ccc(C(F)(F)F)cn3)CC2)nc1	-4.78

Compound	hERG current change (%, negative = inhibition) at 10uM [%]
CC(=O)Nc1cccc(-c2csc(NCc3ccccc3)n2)c1.O=C(O)C(=O)O	-8.18
Cc1cccc(-n2ncc3c(NCc4ccc5c(c4)OCO5)ncnc32)c1	6.07
CCc1ccccc1NC(=S)NC1CC2CCC(C1)N2Cc1ccc(F)cc1 (centres unmarked)	-42
COC(=O)c1ccccc1NC(=O)CSCC(=O)Nc1ccc(F)cc1	-18.1
Cc1cc(NC(=O)Cn2c(=O)n(CCCCC(=O)NC3CCN(Cc4ccccc4)CC3)c(=O)c3ccccc32)n[nH]1	26.5
O=C(CCS(=O)(=O)c1ccc(F)cc1)Nc1nnc(-c2ccco2)o1	15.8
c1ccc(-n2ncc3c(NC4CCCCCC4)ncnc32)cc1	7.31
CN(C)CC/C=C1\c2ccccc2Sc2ccc(Cl)cc21.Cl	-56.7
O=C(O)CNS(=O)(=O)c1cccc2nsnc12	-3.29
Cc1cccc(NC(=O)COC(=O)c2cc(C)oc2C)c1	-48.1
NC(=O)C[n+]1ccc(/C=N/O)cc1.[Cl-]	2.23
Cc1cccc(NC(=O)/C(C#N)=C\c2cn(CC(=O)O)c3ccccc23)c1	10.3
COCCCn1c(SCCc2ccccc2)nc2cc(OC)c(OC)cc2c1=N	-12.7
CCC(=O)OCCNc1cc(Sc2nc3ccccc3[nH]2)c2nonc2c1[N+](=O)[O-]	8.13
O=C(Nc1ccn(Cc2ccccc2F)n1)c1ccc(COc2cc(Cl)ccc2Cl)o1	13
C=CCNc1ncnc2c1[nH]c1ccc(C)cc12	0.512
COc1ccc(C=C(C(C)=O)C(C)=O)cc1OC	5.59
Fc1ccc(F)c(NC(=S)NCCc2ccccc2)c1	8.07
O=S(=O)(N1CCOCC1)n1cnc2ccccc21	-0.341
COc1ccc(CCn2cnc(=O)c(C#N)c2C)cc1OC	7.94
O=C(c1cc(-c2ccc(Cl)cc2)nc2ccccc12)N1CCOCC1	-68.8
CNC(=O)CSc1nnc(COc2ccc([N+](=O)[O-])cc2)n1C	4.51
O=C(Nc1nc2c(F)cc(F)cc2s1)c1ccco1	-5.62

Compound	hERG current change (%, negative = inhibition) at 10uM [%]
CCc1[nH]nc2c1C(C(C)C)C(C#N)=C(N)O2 (centres unmarked)	10.8
CC1CN(C(=O)CSc2nnc(-c3cccs3)n2N)CC(C)O1 (centres unmarked)	9.62
CCC(CC)c1nnc(NC(=O)c2ccco2)s1	7.68
O=C(Cn1nnc(-c2ccccc2F)n1)Nc1ccc2c(c1)OCCO2	11.3
N#Cc1ccsc1NC(=O)COC(=O)CCCSc1nc2ccccc2s1	-32.9
Cc1ccc(NC(=S)N/N=C/c2ccc(OCCC(C)C)cc2)c(C)c1	-0.61
Cc1ccc(-n2nc(C)c(/C=N/n3c(C)n[nH]c3=S)c2Cl)cc1	17.3
COc1ccc(CCN2C(=NC(=O)CC(C)C)SC3CS(=O)(=O)CC32)cc1 (centres unmarked)	-14.6
Oc1ccc(-c2csc(NCc3ccco3)n2)cc1	-10.2
Cc1ccc(C(=O)C(SC(C)(C)C)n2cncn2)cc1 (centres unmarked)	-0.809
COc1ccc(-c2csc(NC(C)c3nc4cc(Cl)c(Cl)cc4n3CCOCCO)n2)cc1 (centres unmarked)	18.4
COc1cccc(-c2ocnc2C(=O)Nc2ccc(N3CCOCC3)cc2N2CCOCC2)c1	6.25
CCc1c(C)nc2[nH]nc(-c3ccccc3C)n2c1=O	7.29
CC(C)c1ccccc1NC(=O)COC(=O)C1(C)CC1(Cl)Cl (centres unmarked)	6.41
COc1ccccc1C1C(C(=O)c2sc(C)nc2C)=C(O)C(=O)N1CCN1CCOCC1 (centres unmarked)	4.26
CC(C)n1cc(CN2CCN(CCc3ccccc3)C(CCO)C2)cn1 (centres unmarked)	-53.4
O=C1C2C3C=CC(CC3)C2C(=O)N1c1ccc(F)cc1 (centres unmarked)	12.3
CCN(CC(=O)NCc1ccc(F)cc1)C(=O)c1ccc2c(c1)OCO2	-5.66
C=CCNC(=O)c1cc2c(C(F)(F)F)nn(C)c2s1	3.82
O=C(Cn1c(-c2cscn2)nc2ccccc21)Nc1ccccc1F	-0.121
